Experimental data reported in patent US20160237133A1.

Target: FGF receptors (FGFR) of HEK293 cells
Test: cell-based or functional assay

- FGFR signaling (phosphorylation of downstream ERK and AKT pathways, Western blot, HEK293 cells), relative to FGF1 (fold reduction): 100
Substance: NT1 (FGF1^ΔNT, SEQ ID NO: 15) (a stretch of the chain, no sequence given) (ligand)
